Experimental data reported in PubChem BioAssay AID1347073 (National Center for Advancing Translational Sciences (NCATS), 2019).
The whole screen tested about 45,000 compounds, of which about 200 (0.44%) were called active. Roughly 7% stayed inconclusive and do not appear here. The call rests on the fitted dose curve; in most records, active means well fitted activation curve with a large enough effect; inconclusive means small, poorly fitted or top-dose-only effect; inactive means no such curve, though single readings can be large or run the other way. The list shows a part of the results.

Experiment: qHTS of TDP-43 Inhibitors: NCGC Sytravon Library Screen; further: 0% is about no effect; nearly all actives have a fitted effect of over 55% in size
Conditions: yeast TDP-43 toxicity rescue, BacTiter-Glo growth, 24 h; series mostly up to 46.1 µM; growth rescue (activation): at the top concentration
Procedure, shortened: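 TDP-43-expressing yeast, pregrown in raffinose, seeded at OD600 0.02 in galactose medium with compound for 24 hr at 30 deg C. Growth read by BacTiter-Glo luminescence, so rescue of toxicity appears as activation.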

| Compound | growth rescue (activation) |
| --- | --- |
| O=C(CSc1nnc(-c2ccccc2O)o1)N1CCCCC1 | inactive: -1.23% |
| Cc1ccc(NC(=O)CCC(=O)NNC(=O)NC23CC4CC(CC(C4)C2)C3)cc1C | inactive: 12.4% |
| CCOc1cccc(CNCCO)c1OCc1ccc(Cl)cc1 | inactive: -4.42% |
| CC1=NN(c2nc(-c3ccc(C#N)cc3)cs2)C(=O)C1 | inactive: 20.9% |
| CCc1nnc(NC(=O)c2ccc(COc3ccccc3C)o2)s1 | inactive: 23.5% |
| CCOC(=O)N1CCN(C(=O)CCN2C(=O)/C(=C\c3cccc(OC)c3)SC2=S)CC1 | inactive: 13.2% |
| Cc1ccccc1NC(=O)CN1C(=O)NC(C)(c2ccc3c(c2)OCO3)C1=O (stereo not drawn) | inactive: 8.01% |
| COc1cc(C2Nc3c(F)cccc3C3C=CCC32)cc(Br)c1OC (stereo not drawn) | inactive: 8.23% |
| Cn1c(=O)n(Cc2ccccc2Cl)c(=O)c2c1[nH]c(=S)n2C | inactive: 15.3% |
| COc1cccc(-c2nc3cc(C)ccc3o2)c1 | inactive: -14% |
| CN(C)S(=O)(=O)c1ccc(Cl)c(NC(=O)COC(=O)[C@@H]2CCCN2C(=O)c2cccs2)c1 | inactive: -3.23% |
| CCN(CC)c1ccc(/C=N/OC(C)C(=O)Nc2ccc(C)cc2)cc1 (stereo not drawn) | inactive: -21% |
| O=c1oc2c(-c3ccc([N+](=O)[O-])cc3)cc(O)cc2s1 | inactive: -6.96% |
| O=C(CCc1ccccc1)Nc1cccnc1Cl | inactive: 11.7% |
| CCCc1cc(=O)n2[nH]c(C)c(-c3ccccc3)c2n1 | inactive: 2.03% |
| CCOC(=O)CSC1=C(C#N)C(c2ccc(C)cc2)C2=C(CCCC2=O)N1 (stereo not drawn) | inactive: -0.752% |
| N#Cc1ccc(CSCC(=O)NN=C2CCCC2)cc1 | inactive: 12.3% |
| Cc1ccc(NC2=NC(c3ccc(F)cc3)n3c(nc(C)cc3=O)N2)c(C)c1 (stereo not drawn) | inactive: -4.63% |
| COc1ccccc1N(CCOc1ccccc1)S(=O)(=O)c1ccccc1 | inactive: 7.74% |
| CC(=O)Nc1ccc(S(=O)(=O)NC2(C(F)(F)F)NC(=O)N(c3ccccc3F)C2=O)cc1 (stereo not drawn) | inactive: 16.5% |
| COC(=O)c1ccc(OCC(O)CNC2CCCC2)cc1 (stereo not drawn) | inactive: -3.3% |
| CCCN(CC(=O)Nc1ccc(Cl)cc1Cl)C(=O)/C=C/c1cccc([N+](=O)[O-])c1 | inactive: -2.64% |
| O=C(CSc1nnc(-c2cccc(F)c2)o1)N1CCOCC1 | inactive: -0.845% |
| COc1ccc(N2C(=O)NC(NS(=O)(=O)c3ccccc3)(C(F)(F)F)C2=O)cc1 (stereo not drawn) | inactive: 2.56% |
| O=C(COC(=O)c1ccc([N+](=O)[O-])o1)Nc1cccc2ccccc12 | inactive: -47.4% |
| COc1ccc(CCNC(=O)c2sc3ccccc3c2Cl)cc1OC | inactive: 24.5% |
| Cc1ccc(NC(=O)Nc2nnc(Cc3ccc([N+](=O)[O-])cc3)s2)cc1C | inactive: 12.1% |

| Compound | growth rescue (activation) |
| --- | --- |
| CCOC(=O)C(=O)N(C)c1c(CC)nc2c(OCc3cccc(Cl)c3)cccn12 | inactive: 9.34% |
| COc1cc(/C=N/NC(=O)c2ccncc2)ccc1OC(=O)c1ccco1 | inactive: 4.54% |
| O=C(O)C1=C(C(=O)Nc2cc(C(F)(F)F)ccc2Cl)CCCC1 | inactive: 27% |
| CCN(Cc1ccncc1)C(=O)c1cc(Br)cc(Br)c1O | inactive: -9.53% |
| CC(C)Oc1cc(F)ccc1-c1cc(C(=O)NCCc2ccncc2)[nH]n1 | inactive: 7.03% |
| COC(=O)C1=C(C)N(Cc2ccc(OC)cc2)C(=O)/C1=C\c1ccco1 | inactive: 7.47% |
| NC(=O)COC(=O)c1ccc(NS(=O)(=O)c2ccc3c(c2)OCCO3)cc1 | inactive: 10.9% |
| COc1ccc(-n2c(COc3ccc(C)cc3)nnc2SCC(=O)O)cc1 | inactive: 6.11% |
| CC(C)N1CCC(N2CCN(Cc3ccc(C#CC(C)(C)O)s3)CC2CCO)CC1 (stereo not drawn) | inactive: 2.11% |
| Cn1cc(C(=O)c2cccc(Cl)c2)cc1/C=N\O | inactive: -0.434% |
| NS(=O)(=O)c1cccc(NS(=O)(=O)c2ccc(/C=C/C(=O)OCC(=O)c3ccccc3)cc2)c1 | inactive: 5.37% |
| Cc1cccc(-n2cc(C(=O)O)c(=O)cc2C)c1 | inactive: 3.53% |
| Cc1ccc(CNC(=O)C2CCC(=O)N2C(C)C)cc1 (stereo not drawn) | inactive: 13.3% |
| c1ccc(NCc2nc3ccccc3n2CCOc2ccccc2)cc1 | inactive: 14.5% |
| COc1ccc(CCNC(=O)Nc2nnc([C@H]3C[C@H](O)[C@@H](CO)O3)s2)cc1OC | inactive: -8.07% |
| CCc1ccc(S(=O)(=O)Nc2ccc(Br)cn2)cc1 | inactive: 9.69% |
| CCc1ccc(NC(=S)NC2CC3CCCC(C2)N3Cc2ccccc2)cc1 (stereo not drawn) | inactive: -4.57% |
| CCC(=O)N1CCCN(S(=O)(=O)c2ccc(C)cc2)C1c1ccc(OC)cc1 (stereo not drawn) | inactive: 0.0018% |
| COCCn1cnc2c1c(=O)n(CC(=O)NCC(F)(F)F)c(=O)n2Cc1ccccc1 | inactive: 1.22% |
| COc1cc2c(cc1OC)C(c1cccs1)N(C(=O)c1cccnc1)CC2 (stereo not drawn) | inactive: 14.8% |
| CC(C)(C)c1ccc(CC(=O)N2CCC2(C)C(=O)NS(=O)(=O)c2ccc3c(c2)CCO3)cc1 (stereo not drawn) | inactive: 13.5% |
| Cc1cc(NC(=O)C(C)C)ncc1NC(=O)CCc1ccccc1 | inactive: 33.7% |
| O=C1CCC(C(=O)NCc2ccccc2)N1 (stereo not drawn) | inactive: 7.69% |
| COc1ccccc1N1N=C(c2ccc([N+](=O)[O-])cc2)CC1c1ccccc1 (stereo not drawn) | inactive: 4.79% |
| CCOc1ccc2cc(C3CC(c4ccco4)=NN3S(C)(=O)=O)c(Cl)nc2c1 (stereo not drawn) | inactive: 22.1% |
| COc1ccccc1-c1cnc(C(O)c2cc(C)ccc2C)[nH]1 (stereo not drawn) | inactive: 8.02% |
